Measurements as given in article PMC13083723 (Patterns, 2026).
About 190 (3.5%) of roughly 5,400 compounds showed an effect of 50% or more. Some of the results follow.

Test system: Vero-E6
Test: primary screen, phospholipidosis by LipidTOX staining; higher = more effect of the substance
Settings: 10 µM
In short: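 Single-concentration screen at 10 μM, with DMSO 0.1 v/v % and amiodarone 10 μM as controls. Read-out is LipidTOX Red phospholipid staining, which tolerates aldehyde fixation, in Vero-E6 cells.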

Row | Compound | result_ITMP [%]
1 | CCOc1ccc2[nH]c(SCCN3CCOCC3)nc2c1 | 0.41
2 | S=C(NC1CCCCC1)N1CCC(c2c[nH]cn2)CC1 | 1.61
3 | CCCCOc1cc(CC2CNC(=O)N2)ccc1OC (stereo not drawn) | -1.11
4 | O=C1NC(=O)/C(=C/c2ccc3c(c2)OC(F)(F)O3)S1 | 21.7
5 | CC[C@H]1[C@@H](O)[C@@H]2[C@H](CC[C@]3(C)[C@@H]([C@H](C)CCC(=O)O)CC[C@@H]23)[C@@]2(C)CC[C@@H](O)C[C@@H]12 | -0.78
6 | COc1cc([C@@H]2c3cc4c(cc3[C@@H](O[C@@H]3O[C@@H]5CO[C@@H](c6cccs6)O[C@H]5[C@H](O)[C@H]3O)[C@H]3COC(=O)[C@H]23)OCO4)cc(OC)c1O | -0.84
7 | O=C(O)c1c(Sc2ccccc2)c2cc(Cl)ccc2n1Cc1ccc(Cl)cc1 | -2.03
8 | c1cncc(CN2CCC(n3ncc4c(N5CCOCC5)nc(-c5ccc6[nH]ccc6c5)nc43)CC2)c1 | 4.24
9 | COC1CCN(C(=O)c2cc(Cc3n[nH]c(=O)c4ccccc34)ccc2F)CC1 | 2.83
10 | CCOC(=O)OC(C)OC(=O)C1N2C(=O)C(NC(=O)[C@H](N)c3ccccc3)C2SC1(C)C (stereo partly drawn) | -2.51
11 | Clc1cccc(Cl)c1CSc1nnc(-c2cnccn2)s1 | -6.45
12 | C#C[C@]1(O)CCC2C3CCc4cc(O)ccc4C3CC[C@@]21C (stereo partly drawn) | -0.56
13 | O=C(CN1CCNCC1)NC1CCCCC1 | -1.25
14 | O=C(/C=C/c1cccnc1)c1ccncc1 | -2.24
15 | C[C@@]12C(=O)OC(=O)[C@]1(C)[C@H]1CC[C@@H]2O1 | 7.41
16 | CNCCN(C)Cc1c[nH]nc1-c1ccc(O[C@H]2C[C@H](OCCC3CCOCC3)C2)cc1 | -0.71
17 | O=C1COc2c(CCNCCN(C(=O)CCNCCc3ccc(Cl)c(Cl)c3)C3CCCCC3)ccc(O)c2N1 | -0.19
18 | C[N+](C)(C)[C@@H](Cc1c[nH]c(=S)[nH]1)C(=O)[O-] | -5.73
19 | CC1(C)CCC(C)(C)c2cc(C#Cc3ccc(C(=O)O)cc3)ccc21 | -1.28
20 | N[C@@]1(C(=O)O)CC[C@H](C(=O)O)C1.N[C@]1(C(=O)O)CC[C@@H](C(=O)O)C1 | -0.35
21 | Cn1cc(-c2ccncc2)c(-c2ccc(OCc3ccc4ccccc4n3)cc2)n1 | 10.3
22 | O=C(O)[C@H]1O[C@@H](Oc2cc3oc(-c4ccccc4)cc(=O)c3c(O)c2O)[C@H](O)[C@@H](O)[C@@H]1O | -8.18
23 | CCN1CCC(n2cc(CNc3cc(Cl)c4ncc(C#N)c(Nc5ccc(F)c(Cl)c5)c4c3)nn2)CC1 | 9.34

Row | Compound | result_ITMP [%]
24 | C=C1C(=O)O[C@H]2[C@H]1CC/C(C)=C/CC[C@@]1(C)O[C@@H]21 [R4A_0002204_002 / SPE_K98548675] | 4.35
25 | O=c1[nH]c(=O)c2ccccc2o1 | -0.99
26 | O=S1(=O)c2cccc3cccc(c23)N1CCCN1CCN(c2ccc(F)cc2)CC1 | 0.28
27 | Nc1ncnc2c1ncn2C1CCCO1 (stereo not drawn) | -2.16
28 | Cc1cc(C)c(S(=O)(=O)n2cc(C)cc2C)c(C)c1 | -10.5
29 | Cc1[nH]c2ccccc2c1CCNCc1ccc(/C=C/C(=O)NO)cc1 | -0.03
30 | Cc1ncc(Cl)cc1NCc1ccc(C(=O)N[C@@H](CC2CCCC2)C(=O)NC2CC2)s1 | -2.09
31 | C=CC(C)(C)c1cc(/C=C/C(=O)c2ccc(O)cc2)c(OC)cc1O | -6.16
32 | O=C(O)c1ccccc1Nc1ccc(CCc2ccc(Cl)c(Cl)c2)cc1 | -7.3
33 | O=C(c1cc2ccccc2o1)N1CCN(Cc2ccccc2)CC1 | 1.62
34 | C[C@]12CC[C@@H]3c4ccc(OS(=O)(=O)O)cc4CC[C@H]3[C@@H]1CCC2=O | 10.8
35 | Cc1ccc(C(=O)Nc2ccc(S(=O)(=O)[O-])c3cc(S(=O)(=O)[O-])cc(S(=O)(=O)[O-])c23)cc1NC(=O)c1cccc(NC(=O)Nc2cccc(C(=O)Nc3cc(C(=O)Nc4ccc(S(=O)(=O)[O-])c5cc(S(=O)(=O)[O-])cc(S(=O)(=O)[O-])c45)ccc3C)c2)c1 | -3.34
36 | Cc1ccc(S(=O)(=O)NC(=O)NN2CCCCCC2)cc1 | -4.53
37 | COc1cc2c(CCNC(C)=O)c[nH]c2cc1Cl | -2.44
38 | Cn1cccc1/C=C1\C(=O)NC(=O)c2ccccc21 | -1.64
39 | CCC(=O)OC(Cc1ccccc1)(c1ccccc1)C(C)CN(C)C (stereo not drawn) | 15
40 | N=C(N)NCCCC(NC(=O)C1CCCN1C(=O)C1CSSCCC(=O)NC(Cc2ccc(O)cc2)C(=O)NC(Cc2ccccc2)C(=O)NC(CCC(N)=O)C(=O)NC(CC(N)=O)C(=O)N1)C(=O)NCC(N)=O (stereo not drawn) | 3.95
41 | CN1CCN(c2c(F)cc3c(=O)c(C(=O)O)cn4c3c2OCN4C)CC1 | 2.58
42 | CC(C)(C)CC(C)(C)c1ccc(O)c(Cc2ccc(Cl)cc2Cl)c1 | -7.19
43 | O=C([O-])c1ccccc1-c1c2cc(I)c(=O)c(I)c-2oc2c(I)c([O-])c(I)cc12 | 7.91
44 | CC1(C)[C@@H]2CC[C@@]1(C)C(=O)C2 [R4A_0000828_001 / SPE_K10034334] | -2.3
45 | NCCc1c[nH]c2ccc(C(N)=O)cc12 | 1.09
46 | c1ccc(Oc2cccnc2)cc1 | 13

Row | Compound | result_ITMP [%]
47 | CCOC(=O)c1ccc(N)cc1 | -4.72
48 | CCCCCCCCCCCCc1ccc(S(=O)(=O)Nc2nncs2)cc1 | -1.38
49 | CC1c2ccccc2CN1CC1=NCCN1 (stereo not drawn) | -2.66
50 | OC(CCCN1CCCCC1)(c1ccccc1)c1ccccc1 | 16.2
51 | CCN(CC)CCOC(=O)C(c1ccccc1)c1ccccc1 | 3.73
52 | Nc1nc(NC2CC2)c2ncn([C@H]3C=C[C@@H](CO)C3)c2n1 | -2.62
53 | Nc1cc(F)ccc1NC(=O)/C=C/c1cnn(C/C=C/c2ccccc2)c1 | 3.65
54 | COc1cccc(CN(C(=O)CC(C)(C)C)[C@H]2C[C@@H](C(=O)N3CCNCC3)N(Cc3ccc4c(c3)OCO4)C2)c1 | 37.3
55 | CCOc1ccc2nc3cc(N)ccc3c(N)c2c1 | -10.8
56 | CCN(CC)CCNc1ccc(CO)c2sc3ccccc3c(=O)c12 | 43.4
57 | CCCCCCCCC(=O)NCc1ccc(O)c(OC)c1 | 4.32
58 | CN(Cc1cnc2nc(N)nc(N)c2n1)c1ccc(C(=O)N[C@@H](CCC(=O)O)C(=O)O)cc1 | -3.08
59 | O=C(COc1ccc(Cl)cc1)N1CCN(Cc2ccc3c(c2)OCO3)CC1 | -5.87
60 | CNC(C)CCC=C(C)C (stereo not drawn) | -6.77
61 | Cc1ccsc1/C=C/C1=NCCCN1C | -4.71
62 | CCCCCCCCCCCCCCCCOP(=O)([O-])OCC[N+](C)(C)C | 3.31
63 | CCCn1c(=O)[nH]c2nc(-c3ccc(S(=O)(=O)O)cc3)[nH]c2c1=O | 5.6
64 | CC/C(=C(/c1ccc(/C=C/C(=O)O)cc1)c1ccc2[nH]ncc2c1)c1ccc(F)cc1Cl | -2
65 | COc1cc(C(C)=O)ccc1O | -3.65
66 | O=C(Nc1cnccc1Cl)N1CCN(Cc2ccc3c(c2)OC(F)(F)O3)CC1 | -2.58
67 | C[N+](C)(C)CCOC(=O)CCC(=O)OCC[N+](C)(C)C | 0.96
68 | CSc1ccc(OCc2ncc([N+](=O)[O-])n2C)cc1 | -2.82
69 | CN1CCN2c3c(cccc31)[C@@H]1CN(CCCC(=O)c3ccc(F)cc3)CC[C@@H]12 | 19.4

Row | Compound | result_ITMP [%]
70 | Oc1ccc2c(c1)CC[C@H](c1ccccc1)[C@@H]2c1ccc(OCCN2CCCC2)cc1 | 21.4
71 | CC(=O)/N=c1\sc(S(N)(=O)=O)nn1C | -9.22
72 | Cc1cnc(NC(=O)c2cc(Oc3cnc(C(=O)N(C)C)nc3)c3cc(C)oc3c2)cn1 | -0.82
73 | C/C(=C\c1ccc(C(=O)O)cc1)c1ccc2c(c1)C(C)(C)CCC2(C)C | -1.89
74 | CCCCCCCCCCCCCCCCOc1nc2ccc(C)cc2c(=O)o1 | -1.94
75 | O=c1[nH]c2ccc(Cl)cc2c(N[C@@H]2CN3CCC2CC3)c1-c1nc2ccccc2[nH]1 | 28.6
76 | OC(CN1CCN(c2cccc(Cl)c2)CC1)C(c1ccccc1)c1ccccc1 (stereo not drawn) | 5.28
77 | CCn1cc(C(=O)O)c(=O)c2ccc(-c3ccncc3)cc21 | -2.9
78 | CC/C(=C(/CC)c1ccc(O)cc1)c1ccc(O)cc1 | -2.48
79 | Cc1nnc(C[C@@H]2C=C(c3ccc(Cl)cc3)c3ccccc3-n3c(C)nnc32)o1 | -0.73
80 | Nc1nc(OCc2ccccc2)c2nc[nH]c2n1 | -2.86
81 | CCC1(c2ncc[nH]2)Cc2ccccc2O1 (stereo not drawn) | -2.25
82 | CCCS(=O)c1ccc2nc(NC(=O)OC)[nH]c2c1 (stereo not drawn) | 0.62
83 | CC(C)(Sc1ccc(CCN(CCCCC2CCCCC2)C(=O)NC2CCCCC2)cc1)C(=O)O | -4.42
84 | CC(CN(C)C)CN1c2ccccc2Sc2ccc(C#N)cc21 (stereo not drawn) | 42.4
85 | CSc1ccc2c(c1)N(CCC1CCCCN1C)c1ccccc1S2 (stereo not drawn) | 68.1
86 | CCCC(CCC)C(=O)OC1C[C@H]2CC[C@@H](C1)[N+]2(C)C (stereo partly drawn) | -4.25
87 | Cc1cc(-c2ccccc2)nnc1NCCN1CCOCC1 | -1.84
88 | CCN(c1cc(C#CCN2CCOCC2)cc(C(=O)NCc2c(C)cc(C)[nH]c2=O)c1C)[C@H]1CC[C@H](N(C)CCOC)CC1 | -1.51
89 | CC(C)(N)C(=O)N[C@H](COCc1ccccc1)C(=O)N1CCC2(CC1)CN(S(C)(=O)=O)c1ccccc12 | 0.41
90 | OC[C@@H](O)C(O[C@@H]1O[C@H](CO)[C@H](O)[C@H](O)[C@H]1O)[C@H](O)[C@@H](O)CO (stereo partly drawn) | -8.28
